First the molecules themselves.
B1: LINE1-mini (parent)
chain: GGCAGAGCUCAACACAGCGUGGCAAAGUGGCUGUGGCUAGACUGCC

Here are results for 56 variants from the RNAGym collection of RNA variant scans (doi:10.7554/elife.90254).

Read counts are not given, so values of variants with three or more changes are uncertain.

The variants in this data set derive from B1. Briefly: self-cleavage, relative activity (ratio to wild type); higher = more cleavage; in vitro, sequencing; the parent is a self-cleaving ribozyme.
Take GGCAGAGCUCAACAGAGCGAGGCAAAGUGGCUGUGGCUAGACUGAC [C15G U20A C45A]: the self-cleavage came to 0.01.

As for GGCAGAGCUCAACAUAGCGUGGCAAUGUGGCUGUGGCUAGACUGCU [C15U A26U C46U], the self-cleavage worked out at 1.14.

With GGCAGAGCUCAACAGAGCAUGGCAAAGUGGCUGUGGCUAGACUACC [C15G G19A G44A], the self-cleavage amounted to 0.08.

With GGCAGAGCUCAACAGAGCGUGAAAAAGUGGCUGUGGCUAGACUGCC [C15G G22A C23A], the self-cleavage was determined as 0.06.

Regarding GGCAGAGCUCAACAUAGAGUGACAAAGCGGCUGUGGCUAGACUGUC [C15U C18A G22A U28C C45U], the self-cleavage turned out to be 0.01.

Take GGCAGAGCUCAACAGAGCGCGGCAAAGUCGCUUUGGCCAGAUUGCC [C15G U20C G29C G33U U38C C42U]: the self-cleavage stood at 0.09.

Consider GGCAGAGCUCAACAUUGCGUGGCAAAGUGCCCGUGGCUAGUCUGCC [C15U A16U G30C U32C A41U], for which the self-cleavage was found to be 0.03.

In the case of GGCAGAGCUCAACAGAGCGUGACAAAGUGGCUGUGGCUCUACUGCC [C15G G22A A39C G40U], the self-cleavage is 0.06.

Consider GGCAGAGCUCAACAGAGCGUGGCAAAUUGGCUCUGGCUAGACUUCC [C15G G27U G33C G44U], for which the self-cleavage is 0.11.

On to GGCAGAGCUCAACAUAGCGUGGCAAUGUGGCUGUGGAUAGAGUGCG [C15U A26U C37A C42G C46G], for which the self-cleavage turned out to be 0.04.

Turning to GGCAGAGCUCAACAGAGCGUGGCAAAGUGGCUGUGGCCAGAUUGCC [C15G U38C C42U], the self-cleavage stood at 0.04.

Take GGCAGAGCUCAACAUAGCGUGGCAACGUGGCUGUGGCUAGACUGCA [C15U A26C C46A]: the self-cleavage came to 0.63.

Consider GGCAGAGCUCAACAGAGCGUGACAAAGUGGCUCUGGCUAGACUGCA [C15G G22A G33C C46A], for which the self-cleavage was 0.15.

Take GGCAGAGCUCAACAUAGCGUGGCAUAGUGGCUGUGGCUAGACUUCU [C15U A25U G44U C46U]: the self-cleavage was 0.03.

Turning to GGCAGAGCUCAACAUAGGGUGGCAAAGUGGCUGUCGCUAGACUGCC [C15U C18G G35C], the self-cleavage came out at 0.05.

GGCAGAGCUCAACAGAGCGUGGCAAAGUGGCUGUGGCUAAUCUGAC [C15G G40A A41U C45A]: the self-cleavage came out at 0.

Consider GGCAGAGCUCAACAGAGCCUGGCAAAGCGUCUGUGGCUAGACUGCC [C15G G19C U28C G30U], for which the self-cleavage turned out to be 0.02.

As for GGCAGAGCUCAACAUAGCGUGGCCAAGUGGCUGUGGCUAGAUUGCC [C15U A24C C42U], the self-cleavage came to 0.08.

Consider GGCAGAGCUCAACAGAGCGUGGCAAAGUGGCUGGGGCUAGACUGAC [C15G U34G C45A], for which the self-cleavage turned out to be 0.02.

In the case of GGCAGAGCUCAACAGAGCGUGACAAAGGGGCUGUGGCUAGACUGCC [C15G G22A U28G], the self-cleavage was 0.02.

As for GGCAGAGCUCAACAUAGUGUGGCAUAGUGGCUGUGGCUAGACUGCC [C15U C18U A25U], the self-cleavage was 0.11.

GGCAGAGCUCAACAUAGCGUGGCCAAGUCGCUGUGGCUAGACUGCC [C15U A24C G29C]: the self-cleavage was 0.71.

Consider GGCAGAGCUCAACAUAGCGUGGCAAAGUGGCUGUGGCUCGAUUGCC [C15U A39C C42U], for which the self-cleavage is 0.01.

As for GGCAGAGCUCAACAGAGCCUGGCAAAGUGGCUUUGGCUAGACUGCG [C15G G19C G33U C46G], the self-cleavage amounted to 0.02.

With GGCAGAGCUCAACAUGGCGUGGCGAAGUGGCUGUGGCUAGACUGCG [C15U A16G A24G C46G], the self-cleavage turned out to be 0.

Regarding GGCAGAGCUCAACAGAGCGUGCCAAAGUGACUGUGGCUAGACUGCC [C15G G22C G30A], the self-cleavage stood at 0.03.

As for GGCAGAGCUCAACAUAGCGUGGCCAAGUGGCUGUGUCUAGACUGCC [C15U A24C G36U], the self-cleavage stood at 0.14.

Take GGCAGAGCUCAACAUAGAGUGGCAAAGUGGCUGUGGCUAGACUACC [C15U C18A G44A]: the self-cleavage amounted to 0.

With GGCAGAGCUCAACAUAGUGUGGCAAAAUGGCUGUGGCUAGACUGCC [C15U C18U G27A], the self-cleavage is 0.1.

For the variant GGCAGAGCUCAACAGAGCGUGGCAAAGUGGCUGCGGCUCGACUGCC [C15G U34C A39C], the self-cleavage came out at 0.07.

In the case of GGCAGAGCUCAACAGAGCCUGGCAAAAUGGUUGUGGCUAGACUGCC [C15G G19C G27A C31U], the self-cleavage stood at 0.16.

Turning to GGCAGAGCUCAACAUAGGGUCGCAAAGUGGCUGUGGCUAGACUGCC [C15U C18G G21C], the self-cleavage came to 0.46.

For the variant GGCAGAGCUCAACAGAGCGUGGCAAAGUGGCUCUGGCUGGACUGGU [C15G G33C A39G C45G C46U], the self-cleavage is 0.01.

For GGCAGAGCUCAACAGAGCGUGGCAAAGUGGCUGGGGUUAGACUACC [C15G U34G C37U G44A], the self-cleavage stood at 0.01.

Turning to GGCAGAGCUCAACAGAGCGUUGCAGAGUGGCUGUGGCUAGACCGCC [C15G G21U A25G U43C], the self-cleavage is 0.03.

With GGCAGAGCUCAACAGAGCGUGGCAAAGUUGCGGUGGCUAGACUGCC [C15G G29U U32G], the self-cleavage is 0.01.

Consider GGCAGAGCUCAACAUCGCGUAGCAAAGUGGCCGGGGCUAGACUGCC [C15U A16C G21A U32C U34G], for which the self-cleavage was 0.04.

On to GGCAGAGCUCAACAGAGCGGGGCAAAGUGGCUGUGGCUAGGCUGCC [C15G U20G A41G], for which the self-cleavage is 0.01.

Take GGCAGAGCUCAACAUAGCGUGGCAAAGUGGCUGUGGCUUGACUGUC [C15U A39U C45U]: the self-cleavage was 0.36.

Consider GGCAGAGCUCAACAGAGCGUGGCAAAGUGUCCGUGGCUAGACUGCC [C15G G30U U32C], for which the self-cleavage turned out to be 0.07.

In the case of GGCAGAGCUCAACAGAGCGUGGCAAAGUCGCUGUGACUAGACUGCC [C15G G29C G36A], the self-cleavage was 0.03.

As to GGCAGAGCUCAACAGAGCGUGGCAAAGUGGCAGUGGCUUGACUGCC [C15G U32A A39U], the self-cleavage is 0.05.

As to GGCAGAGCUCAACAUUGCCUGGCAAAGCGGCAGUGGCUAGACUGCC [C15U A16U G19C U28C U32A], the self-cleavage was 0.92.

In the case of GGCAGAGCUCAACAGAGCGUUGCAAAGUGGCUGCACCUCAACUGCC [C15G G21U U34C G35A G36C A39C G40A], the self-cleavage came to 0.01.

Take GGCAGAGCUCAACAUUGCUUGGCAACGUGGCUGUGGCUAGACUGCC [C15U A16U G19U A26C]: the self-cleavage was 0.11.

For GGCAGAGCUCAACAUAGAGUGGGAAAGUGACAGUGGCUAGAGUGCA [C15U C18A C23G G30A U32A C42G C46A], the self-cleavage came to 0.

Consider GGCAGAGCUCAACAUGGCGUGGCAAAGUGGCUGUAGUUAGAUAGCC [C15U A16G G35A C37U C42U U43A], for which the self-cleavage was determined as 0.14.

Consider GGCAGAGCUCAACAUGGCGUGUGAAAGUUGCUGUGGCAAGACUGCC [C15U A16G G22U C23G G29U U38A], for which the self-cleavage is 0.14.

With GGCAGAGCUCAACAGAGCGUGCCAAGGUGGCUGUGGCUAGACUGCC [C15G G22C A26G], the self-cleavage came to 0.01.

As to GGCAGAGCUCAACAGAGCGUGGCAAAGUGGCUGUGCCUAGACACCC [C15G G36C U43A G44C], the self-cleavage came out at 0.01.

As to GGCAGAGCUCAACAUUGCGUGGCAAAGUGGAUGUGGCUAGAAUGCC [C15U A16U C31A C42A], the self-cleavage was determined as 0.04.

With GGCAGAGCUCAACAUAGCGUGGCACACUGGCUGUGGCUAGGCUGCC [C15U A25C G27C A41G], the self-cleavage was 0.12.

For GGCAGAGCUCAACAUAGCGUGGCACAGUGUCUAUGGCUAGACUGCC [C15U A25C G30U G33A], the self-cleavage worked out at 0.06.

Take GGCAGAGCUCAACAGAGCGUGGCAAAGUGGCUUAGGCAAGACCGCC [C15G G33U U34A U38A U43C]: the self-cleavage was found to be 0.01.

For the variant GGCAGAGCUCAACAGAGCGAGGCAAAGUGGCUGUGGCUAGACUCCC [C15G U20A G44C], the self-cleavage turned out to be 0.04.

On to GGCAGAGCUCAACAUAGUGUGGCAAAGUGGCUGUAGCUAGACUGCC [C15U C18U G35A], for which the self-cleavage was found to be 0.06.
